Laboratory results published in the supplement of paper PMC12217912.
The list shows a part of the results. Sequences were assembled here from the parent chain. Values near 0.05 are background.

B1: TEV protease; numbered along this chain (parent)
chain: MGESLFKGPRDYNPISSSICHLTNESDGHTTSLYGIGFGPFIITNKHLFRRNNGTLVVQSLHGVFKVKDTTTLQQHLVDGRDMIIIRMPKDFPPFPQKLKFREPQREERICLVTTNFQTKSMSSMVSDTSCTFPSGDGIFWKHWIQTKDGQCGSPLVSTRDGFIVGIHSASNFTNTNNYFTSVPKNFMELLTNQEAQQWVSGWRLNADSVLWGGHKVFMVKPEEPFQPVKEATQL

Variants of: B1
Assay: raw area under fraction-flipped curve 0-4 h after induction (AUC4h, not background-subtracted), DNA-recorder readout of cleavage of the substrate (dimensionless); higher = more cleavage of the substrate by the protease variant
Details: temperature: 34 °C; time window: 0-4 h after rhamnose induction
Description: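 In vivo DNA recorder in E. coli TOP10(DE3) ΔrhaA at 34 °C. Each TEVp single-site mutant (parent TEVp 0) is paired with a single-site variant of the 7-mer TEVs (canonical ENLYFQ|S). The substrate sits between flexible linkers in a Bxb1-sfGFP-TEVs-SsrA fusion, so cleavage stabilises Bxb1 and speeds flipping of a recombination array, read by NGS. The value is the raw area under the fraction-flipped curve over 0-4 h after rhamnose induction (AUC4h), with ≥20 reads per time point. It is not background-subtracted; inactive controls average about 0.047.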
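Note: Bxb1 expression induced with 0.2% (w/v) L-rhamnose at OD600 near 0.5, cultures sampled hourly, flipped fraction per protease–substrate barcode pair counted by paired-end Illumina sequencing.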

| Variant | area with substrate ENLYFAS | area with substrate ENLYFCS | area with substrate ENLYFES | area with substrate ENLYFFS | area with substrate ENLYFHS | area with substrate ENLYFIS | area with substrate ENLYFMS | area with substrate ENLYFNS | area with substrate ENLYFPS | area with substrate ENLYFRS | area with substrate ENLYFVS | area with substrate ENLYFWS | area with substrate ENLYFYS | area with substrate ENLYFDS | area with substrate ENLYFLS | area with substrate ENLYFSS | area with substrate ENLYFTS | area with substrate ENLYFGS | area with substrate ENLYFKS |
| --- | --- | --- | --- | --- | --- | --- | --- | --- | --- | --- | --- | --- | --- | --- | --- | --- | --- | --- | --- |
| MGESLFKGPRDYNPISSSICHLTCESDGHTTSLYGIGFGPFIITNKHLFRRNNGTLVVQSLHGVFKVKDTTTLQQHLVDGRDMIIIRMPKDFPPFPQKLKFREPQREERICLVTTNFQTKSMSSMVSDTSCTFPSGDGIFWKHWIQTKDGQCGSPLVSTRDGFIVGIHSASNFTNTNNYFTSVPKNFMELLTNQEAQQWVSGWRLNADSVLWGGHKVFMVKPEEPFQPVKEATQL [N24C] | 0.0617 | 0.0735 | 0.0634 | 0.0541 | 0.0618 | 0.0625 | 0.0606 | 0.0545 | 0.0574 | 0.0626 | 0.0634 | 0.0584 | 0.0727 |  |  |  |  |  |  |
| MGESLFKGPRDYNPISWSICHLTNESDGHTTSLYGIGFGPFIITNKHLFRRNNGTLVVQSLHGVFKVKDTTTLQQHLVDGRDMIIIRMPKDFPPFPQKLKFREPQREERICLVTTNFQTKSMSSMVSDTSCTFPSGDGIFWKHWIQTKDGQCGSPLVSTRDGFIVGIHSASNFTNTNNYFTSVPKNFMELLTNQEAQQWVSGWRLNADSVLWGGHKVFMVKPEEPFQPVKEATQL [S17W] | 0.0663 | 0.0674 | 0.0482 | 0.0646 |  | 0.0618 | 0.0602 | 0.0653 | 0.053 |  |  | 0.0524 | 0.0435 | 0.0534 | 0.052 | 0.0516 | 0.0587 |  |  |
| MGESLFKGPRDYNPIVSSICHLTNESDGHTTSLYGIGFGPFIITNKHLFRRNNGTLVVQSLHGVFKVKDTTTLQQHLVDGRDMIIIRMPKDFPPFPQKLKFREPQREERICLVTTNFQTKSMSSMVSDTSCTFPSGDGIFWKHWIQTKDGQCGSPLVSTRDGFIVGIHSASNFTNTNNYFTSVPKNFMELLTNQEAQQWVSGWRLNADSVLWGGHKVFMVKPEEPFQPVKEATQL [S16V] | 0.0514 | 0.0615 |  | 0.074 | 0.039 | 0.0552 | 0.061 | 0.0467 | 0.0522 |  |  | 0.0596 |  | 0.0309 | 0.0598 | 0.0507 | 0.0452 | 0.0316 |  |
| MGESLFKGPRDYNPITSSICHLTNESDGHTTSLYGIGFGPFIITNKHLFRRNNGTLVVQSLHGVFKVKDTTTLQQHLVDGRDMIIIRMPKDFPPFPQKLKFREPQREERICLVTTNFQTKSMSSMVSDTSCTFPSGDGIFWKHWIQTKDGQCGSPLVSTRDGFIVGIHSASNFTNTNNYFTSVPKNFMELLTNQEAQQWVSGWRLNADSVLWGGHKVFMVKPEEPFQPVKEATQL [S16T] | 0.0617 | 0.0661 | 0.0597 | 0.0643 |  | 0.0568 | 0.0613 | 0.058 | 0.0482 |  |  | 0.0548 | 0.0487 | 0.0432 | 0.0642 | 0.0532 | 0.052 | 0.0693 | 0.0634 |
| MGESLFKGPRDYNPIRSSICHLTNESDGHTTSLYGIGFGPFIITNKHLFRRNNGTLVVQSLHGVFKVKDTTTLQQHLVDGRDMIIIRMPKDFPPFPQKLKFREPQREERICLVTTNFQTKSMSSMVSDTSCTFPSGDGIFWKHWIQTKDGQCGSPLVSTRDGFIVGIHSASNFTNTNNYFTSVPKNFMELLTNQEAQQWVSGWRLNADSVLWGGHKVFMVKPEEPFQPVKEATQL [S16R] | 0.0566 | 0.0596 | 0.0561 | 0.046 | 0.0664 | 0.0645 | 0.0542 | 0.0663 | 0.0623 | 0.0558 | 0.0665 | 0.0578 | 0.0587 | 0.0539 | 0.0187 | 0.0434 | 0.0548 |  | 0.0607 |
